Laboratory results taken from publication PMC4336329 (PLoS ONE, 2015).
In all, about 310,000 compounds went through this assay and about 2,200 (0.71%) showed an effect of 50% or more. The effect is printed as a negative number. The list shows a part of the results.

These compounds were tested against human ether-à-go-go-related gene (hERG) potassium channel (human, UniProt Q12809) (assay: primary screen, population patch clamp on CHO cells stably expressing hERG).
human ether-à-go-go-related gene (hERG) potassium channel, sequence (Q12809 whole entry, looked up): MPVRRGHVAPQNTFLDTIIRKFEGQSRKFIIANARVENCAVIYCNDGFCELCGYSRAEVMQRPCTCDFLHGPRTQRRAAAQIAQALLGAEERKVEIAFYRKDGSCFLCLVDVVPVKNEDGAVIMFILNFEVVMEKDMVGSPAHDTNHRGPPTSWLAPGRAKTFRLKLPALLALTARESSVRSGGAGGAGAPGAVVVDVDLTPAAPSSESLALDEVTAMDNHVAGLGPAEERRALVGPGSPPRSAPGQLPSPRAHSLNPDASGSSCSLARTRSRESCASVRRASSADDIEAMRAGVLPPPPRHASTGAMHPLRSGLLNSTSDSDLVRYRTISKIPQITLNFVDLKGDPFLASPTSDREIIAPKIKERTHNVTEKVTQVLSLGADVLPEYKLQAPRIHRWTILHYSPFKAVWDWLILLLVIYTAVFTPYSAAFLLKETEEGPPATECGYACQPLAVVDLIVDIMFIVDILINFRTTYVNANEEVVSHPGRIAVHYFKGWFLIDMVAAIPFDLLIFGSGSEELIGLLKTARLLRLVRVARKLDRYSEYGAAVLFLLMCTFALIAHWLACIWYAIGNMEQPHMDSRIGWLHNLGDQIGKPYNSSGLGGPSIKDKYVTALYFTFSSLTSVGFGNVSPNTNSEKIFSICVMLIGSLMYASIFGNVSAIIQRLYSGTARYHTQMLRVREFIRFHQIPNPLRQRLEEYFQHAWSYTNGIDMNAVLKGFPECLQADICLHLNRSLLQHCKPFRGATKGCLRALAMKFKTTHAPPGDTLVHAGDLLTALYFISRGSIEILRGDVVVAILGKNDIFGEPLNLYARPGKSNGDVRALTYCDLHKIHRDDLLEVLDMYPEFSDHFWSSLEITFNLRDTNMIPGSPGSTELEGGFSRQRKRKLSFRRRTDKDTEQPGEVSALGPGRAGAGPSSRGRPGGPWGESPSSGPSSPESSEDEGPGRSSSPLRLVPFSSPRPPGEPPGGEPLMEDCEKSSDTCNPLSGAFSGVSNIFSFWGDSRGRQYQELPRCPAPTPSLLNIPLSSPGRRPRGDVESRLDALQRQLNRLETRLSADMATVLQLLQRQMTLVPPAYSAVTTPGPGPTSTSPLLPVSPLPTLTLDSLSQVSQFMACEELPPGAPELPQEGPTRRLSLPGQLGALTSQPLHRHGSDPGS

SMILES | hERG current change (%, negative = inhibition) at 1uM
Cc1cc(C)n(CC(O)CN(c2ccccc2)S(=O)(=O)c2ccc3ccccc3c2)n1 (centres unmarked) | 6.41%
Cc1ccccc1C1=NC(C(F)(F)F)(C(F)(F)F)c2c(n(C)c(=O)n(C)c2=O)N1 | 11.8%
CCCCSc1nnc([C@@H](NC(=O)OC(C)(C)C)C(C)C)o1 | -3.35%
CN(C)C(=O)Oc1cccc(OCc2n(C)c3ccccc3[n+]2C)c1.[Cl-] | 15.5%
COc1ccc(/C=C/C(=O)c2cc(F)ccc2OC(=O)c2ccccc2)cc1OC | 7.22%
CCOC(=O)CNC(=O)CSc1ncnc2c1nnn2-c1ccc(F)cc1 | 8.12%
Cc1cc(C)c(NC(=O)CC(C)(C)C)c(Cl)c1 | 15.3%
CC(=O)c1ccc(NC(=S)Nc2ccn(Cc3ccc(Br)cc3)n2)cc1 | -0.993%
COC(=O)C1=NN(c2ccc(C)cc2)C2C(=O)N(c3ccccc3OC)C(=O)C12 (centres unmarked) | 14.5%
COc1ccc(CNC(=O)CN(C(=O)Cn2nnc(-c3ccccc3F)n2)c2ccc(C)cc2)cc1 | -1.39%
COc1c2occc2c(OC(C)=O)c2c(=O)cc(C)oc12 | 12.4%
O=S(=O)(NC1CCCCC1N1CCCCC1)c1ccccc1 (centres unmarked) | 20.5%
Cc1ccc(S(=O)(=O)NC(C)C(=O)Nc2cccc([N+](=O)[O-])c2)cc1 (centres unmarked) | 7.29%
CCC1CCc2c(sc(N)c2C(N)=O)C1 (centres unmarked) | 12.6%
COc1ccccc1/C=C/CN1CCCC(CCC(=O)NCc2ccc(F)c(F)c2)C1 (centres unmarked) | -26.2%
O=C(Nc1ccc2c(c1)OCO2)C1CCN(C(=O)c2ccc([N+](=O)[O-])cc2)CC1 | -74.6%
CC1(C)Oc2ccc(C(=O)NN)cc2NC1=O | 6.86%
Cc1c(NC(=O)c2ccc(S(=O)(=O)N3CC(C)OC(C)C3)cc2)c(=O)n(-c2ccccc2)n1C (centres unmarked) | 4.29%
COc1cccc2c1cc1c(=O)n(CC(=O)NCCCN3CCN(C)CC3)nc(C)n12 | 5.74%
O=C(NCc1cccs1)C1CCN(S(=O)(=O)N2CCCC2)CC1 | 5.84%
Cc1ccc(Cl)cc1N=C(N)N=C(N)N | 14.9%
Cc1nc(N)sc1N=Nc1ccccc1C(F)(F)F | 6.39%

SMILES | hERG current change (%, negative = inhibition) at 1uM
COC(=O)c1sc2ncn(N)c(=O)c2c1C | 12.8%
O=C(Nc1cccc(-c2cccc(F)c2)c1)C1CCN(C2CCC2)CC1 | -26.1%
N#Cc1ccc(NC(=O)Cn2c3[n+](c4ccc(C(F)(F)F)cc42)CCCCC3)cc1.[Br-] | 15.2%
O=C(NCc1ccco1)c1cccc2c1C(=O)N(C1CCCCC1)C2 | 4.93%
COc1cc(C2C(C#N)=C(N)OC3=C2C(=O)CCC3)c([N+](=O)[O-])cc1OC (centres unmarked) | 9.86%
O=S(=O)(c1ccc2c(c1)OCO2)N1CCN(c2nnnn2-c2ccccc2)CC1 | 0.0509%
COc1cc(OC)cc(N(C(=O)CNC(=O)c2cccs2)C(C(=O)NCC2CCCO2)c2ccc(OC)c(OC)c2)c1 (centres unmarked) | -0.816%
COc1cc(C(=O)NCC(c2ccco2)N2CCCC2)ccc1OCc1ccccc1 (centres unmarked) | 2.31%
CC(CNC(=O)c1ccc(OC2CCN(Cc3ccccn3)CC2)cc1)Oc1cccnc1 (centres unmarked) | -18.6%
CC(=O)c1cccc(N(C(=O)c2cnccn2)C(C(=O)NCc2ccccc2)c2ccco2)c1 (centres unmarked) | 8.22%
CC(NC(=O)c1ccccc1)c1ccc(Br)cc1 (centres unmarked) | 12.1%
Cc1ccc(NC(=O)C2CCCN(c3cnccn3)C2)c(C)c1 (centres unmarked) | -0.933%
CCOc1ccccc1NC(=O)COc1ccc(S(=O)(=O)N2CCCC2)cc1 | -7.76%
CCN(C(=O)COC(=O)c1cccnc1SC)c1c(N)n(Cc2ccccc2)c(=O)[nH]c1=O | 7.74%
CCCCCCc1cc2cc(S(=O)(=O)c3ccc(C)cc3)c(=O)oc2cc1O | 14.5%
CCC12CN3CCN(CC(C3)/C1=N/NC(=O)c1ccncc1)C2 | 15.5%
CCN(CC)S(=O)(=O)c1cccc(C(=O)OCC(=O)NCc2ccccc2OC)c1 | -2.72%
CCc1nnc(N/N=C/c2ccccc2F)n1N.Cl | 17%
CCN1CCN(CCNC(=O)c2ccc(CS(=O)c3ccc(Br)cc3)o2)CC1 (centres unmarked) | -10.8%
C/C(=N\NC(N)=O)c1ccc(Cl)cc1 | 6.05%
NC(=O)c1ccc(C(F)(F)F)cn1 | 14.7%
Cc1ccc(S(=O)(=O)Nc2cc(-c3ccccc3)nn2C)cc1Cl | 15.2%
